According to PMC12136788:
The other results are listed elsewhere or left out.

B1: chr4:175158536:175158537:-_ENSG00000164117_ENST00000503293|hu_hu|FALSE|FALSE (ssRNA)
RNA: GGGAGUUCUACAGUCCGACGAUCGCUUGAUUGUAUACUCAGGCUACAAUGACCAGCACUGAUGUAACCCCCAUAUCUGCUAAGUCCUUGGGUAGCUUUAGUCUGAAGUAAAAACUGAAGUCCUAGCAAUUGUGCUUUUUAUGCCAACAGAGGAUUGAGCAUCA
B2: chr3:176767854:176767855:-_ENSG00000177565_ENST00000430069|hu_hu|hu_hu_hu_mus_False|28_28 (ssRNA)
RNA: GGGAGUUCUACAGUCCGACGAUCGACAUCCUUGUUACUGGGCACGUCCUGCCCUCCUUCCCGUAUGCAGUGUCUAAGCACGAGCUGCGUAGGGCCACUCGUGCUGUUCUCACUAAGGUUCCAGAUUCUUGCCGUGGAGUCUCCCAACAGAGGAUUGAGCAUCA
B3: chr2:202488911:202488912:-_ENSG00000155755_ENST00000286196|hu_mus|hu_hu_hu_mus_False|18_18 (ssRNA)
RNA: GGGAGUUCUACAGUCCGACGAUCAUUGAAACAUUUUUCAUAAUCUCCAGUAGCAUUUCAGCAUUAUGUAACAAAAGCUCAAUUGUAAAUACAUGUAUCUUAUAAAAAUACACUUAAAUUUAAAAACGGGGAGCGCAGGCGCCACAACAGAGGAUUGAGCAUCA
B4: chr14:32562060:32562061:+_ENSG00000100852_ENST00000539826|hu_hu|motif|central (ssRNA)
RNA: GGGAGUUCUACAGUCCGACGAUCCUUUAUUUGGGUUUCAUUAAAUUUACGAGGAUAUGUACCAGCAGGUACAUCGGCAAAAGGACAUUGCAACUUGUUUGCCAACUGCUGCCCUUGGUGCCUGAGAAUUGGUAGAUUCUUACUCAACAGAGGAUUGAGCAUCA
B5: chr22:28307021:28307022:-_ENSG00000180957_ENST00000335272|hu_mus|FALSE|FALSE (ssRNA)
RNA: GGGAGUUCUACAGUCCGACGAUCUUCAUAAGGUUCAUUCUUCAGGACUUCGAUUCCUUCUCCACCACCAGUUUCAUUCUUACUCGCUUCUGCAACAGAGUAAAGCUGUCCAACCUGAUACUCUUGAACAGAACACGGCAAAACCAACAGAGGAUUGAGCAUCA
B6: 128432111_128434639_343_3pUTR_ENSG00000119487_ENST00000373498|human|control|control (ssRNA)
RNA: GGGAGUUCUACAGUCCGACGAUCUUCUUUCUUUCCACUGAAUAUUUUUGCAUUUGAUCUGGUUUUGUCUCUCUUUUCGGAGUCGUUCUAAUCUUUGAGCUGUGUUUGAGCGUCUUCUAAUACCAAAGUCCCAACUUGAGGUAACAACAGAGGAUUGAGCAUCA
B7: 120676072_120676440_3533_CDS_ENSMUSG00000025153_ENSMUST00000055655|mouse|control|control (ssRNA)
RNA: GGGAGUUCUACAGUCCGACGAUCCAGACCCUUGCACAGUUGCAGCUCCUUCUGCAGGGCAGUGCUCUCAGACAGGCACUCAGCCUCCAUGUGCGGUGUGAAAACGAACUUUUCCAAGGUGGGGACCAGCUGUUCUUGCUGCCGCAACAGAGGAUUGAGCAUCA
B8: chr7:140404665:140404666:+_ENSG00000090266_ENST00000247866|hu_hu|hu_hu_hu_mus_False|18_78 (ssRNA)
RNA: GGGAGUUCUACAGUCCGACGAUCUGCUCCUACUCGUCCAGAGAGUUUACAGUGUCAGUCUUCAUCAUCAGGAGGGAUUCCCAGUUCUUCAUCUGUCCACUGUGAAGGAUCUGGAUACGGAAAGUGACCCAGCACAGCAUCCGACAACAGAGGAUUGAGCAUCA
B9: chr7:75932113:75932114:+_ENSG00000106211_ENST00000248553|hu_hu|hu_hu_hu_mus_False|8_98 (ssRNA)
RNA: GGGAGUUCUACAGUCCGACGAUCCUGCGACCACUCAUCCGGCAGCCGGGGCACCCCGAAAGCUUGAUCGAAGAGGCGGCUGUGUGCAGGGUACCAGUCCCGGAAUGGUUCCCAGCUCGGGCUCCGCAGCGAGAAGGAGGGCACCAACAGAGGAUUGAGCAUCA
B10: chr7:44244176:44244177:+_ENSG00000106636_ENST00000223369|hu_hu|motif|central (ssRNA)
RNA: GGGAGUUCUACAGUCCGACGAUCACUAUCAUUCCGGACGUAGACGUGGCACAGAUAGUCUUGUUCUUUGACAGAAGCUCGGGUGCCUUUCGAUGAGCGCUCCACAAUCAGUUGACUCGUGAAGGUCAUGAAUUCCUGAACGCUCAACAGAGGAUUGAGCAUCA
B11: 32953677_32953797_881_CDS_ENSG00000060749_ENST00000399302|human|control|control (ssRNA)
RNA: GGGAGUUCUACAGUCCGACGAUCCUGAAUUGACUGGGUACCUGAAGGCCGCUGAUGGUGUUUAAUAACACUACAUUCUCGAAGAAGAGCUCUUUCAAUGGAAGCAGUAGAACUAGUAAAGAGAGUUGAACUGUAGGCUUGAGGCAACAGAGGAUUGAGCAUCA
B12: chr7:135832182:135832183:+_ENSMUSG00000042105_ENSMUST00000118605|mus_hu|FALSE|FALSE (ssRNA)
RNA: GGGAGUUCUACAGUCCGACGAUCAACAAUGGUCGCAUAAAAGCCGCUGUCUUCAGGGGACAUCAACAUCAGACUUUGGAAAAGAAGUAAUUUGCAGGAAAAAUAUAACCCCACAGGAACUUUAACCAUAAGCCCUGCAAAAAGCAACAGAGGAUUGAGCAUCA
B13: chr22:32879901:32879902:+_ENSG00000100225_ENST00000397426|hu_mus|hu_hu_hu_mus_False|38_78 (ssRNA)
RNA: GGGAGUUCUACAGUCCGACGAUCCUCUUCCAUACUCAUGGCAUCCUGAAUUGACUCAGCUUCAAAAUUUUGACUAGGCCCUUCCAUACUGUCAUCAUUCCAAACACCAAAUGGGGUGGCCUGUCCUUGGGAUGAAUCAGUCCCCAACAGAGGAUUGAGCAUCA
B14: chr1:145592185:145592186:+_ENSMUSG00000018196_ENSMUST00000111957|mus_hu|FALSE|FALSE (ssRNA)
RNA: GGGAGUUCUACAGUCCGACGAUCUGCCAUUGUACAGUAAGAACAGGAUGUUUUUGAGAAAAUCACCACACAAUUAUCAGAAAUUGUUUCUUGGAUCUGGUUCACAGGCGCCGUCGCUAAAUUCUCCAAAGAUGAUGAUGUAUUCAACAGAGGAUUGAGCAUCA
B15: chr10:36853155:36853156:-_ENSMUSG00000069662_ENSMUST00000092584|mus_mus|FALSE|FALSE (ssRNA)
RNA: GGGAGUUCUACAGUCCGACGAUCUUCUUAUAAUCCAGAGUGUUCAUAACCACAGCAAAGGCCACUGCACACACUGCCAAUACAGACUUAAUAACACGAUUCUCAACUGUACAAGAGUUAUUUAUUUUCCUUAAUCUCAAAGCUCAACAGAGGAUUGAGCAUCA
B16: 82409263_82409383_1284_CDS_ENSG00000117114_ENST00000335786|human|control|control (ssRNA)
RNA: GGGAGUUCUACAGUCCGACGAUCUUGGUUAUCUCUUGGAUUGUAAUCCACUGCAGCAAUAUACUGAUACUGGUUGGGGAAGGGAACAUCUACAUAUUCUCCUCGGUUUAAUCGGGUAUUAUAAAUGUAAUCAAUUGAGUUCUUCAACAGAGGAUUGAGCAUCA
B17: 78574142_78600914_1522_CDS_ENSG00000149256_ENST00000278550|human|control|control (ssRNA)
RNA: GGGAGUUCUACAGUCCGACGAUCCUGCAGGUGCCAGUUUAGGCCAAACAGGUGCAUGGCCACAAAGUAUGCCAGCAGGAUGACCAGAGUGGCUGAGAUGACGAUGGCGCUCAGGGCUGCGCACUUCCAGUUACAGUACUUGGACAACAGAGGAUUGAGCAUCA
B18: chr1:244855233:244855234:+_ENSG00000121644_ENST00000302550|hu_mus|hu_hu_hu_mus_True|98_108 (ssRNA)
RNA: GGGAGUUCUACAGUCCGACGAUCCAUUAAAUGAUAAGCAUUGCCUUUAUACUCUUUCCCCAGUUCUUCUACAAUUUUCUCUAUAUCAUCUUCUAGAAAGUCCGUACUUCCUAGAACAACAGCUUCUUUAAAUUUAAAUGUUUCCAACAGAGGAUUGAGCAUCA
B19: chr16:18284709:18284710:-_ENSMUSG00000022718_ENSMUST00000009321|mus_mus|motif|central (ssRNA)
RNA: GGGAGUUCUACAGUCCGACGAUCAACCACUGCCUCAAUUAUUGGAAAUCACAAUGCACUCAGCUUAAAAGAUUGACGUCGGAGUGAGUCUAUCUUCAUGCCAAAGUGGCACCUUUCUUCUUCCACCUGUGGCGCCCGCGACCUCAACAGAGGAUUGAGCAUCA
B20: 12706174_12707393_3387_CDS_ENSMUSG00000031010_ENSMUST00000089302|mouse|control|control (ssRNA)
RNA: GGGAGUUCUACAGUCCGACGAUCUUGCCAAAGGAAAGAGAUGUAUCUGGGAUGAAGUGACAUUAUCACUCCAGGCAAACAACUUUCCACUUCUGGAUUGGGGCCAUCACUGUAAUGAUUACCAUGAUUUCCAGGAGAUCCAGUCAACAGAGGAUUGAGCAUCA
B21: chr1:163117127:163117128:-_ENSG00000143248_ENST00000313961|hu_mus|hu_hu_hu_mus_False|18_48 (ssRNA)
RNA: GGGAGUUCUACAGUCCGACGAUCUGCUACAAAGGAUGUAACUCAACUCACAGGGCAACUUUUGGAAGCCUGACCAGAUGACUACUUGAUUAACUCCUUAUAAAAUUCAGAGCGCACAAAGCGAGGCAGAGAAUCCUUCUCCAUCAACAGAGGAUUGAGCAUCA
B22: chr6:114281168:114281169:-_ENSG00000196591_ENST00000368632|hu_hu|hu_hu_hu_mus_True|8_78 (ssRNA)
RNA: GGGAGUUCUACAGUCCGACGAUCUUCCAUUUUUCGGUAUAAACCAUAAUUUAGCAGCAAGUUAUGGGUCAUCCGGAUUCUAUGAGGCUUCAUGGGAUGACCCUGGCCAUAAUAAUAAUUGCCAAUAUCACAGAUUCAGUAGUACAACAGAGGAUUGAGCAUCA

biological target: T1, UNK ZnF1-3 (human, UniProt Q9C0B0 31-174); assay: nsRBNS (natural sequence RNA bind-n-seq); RBNS binding buffer (assumed for nsRBNS): 25 mM Tris pH 7.5, 150 mM KCl, 3 mM MgCl2, 0.01% Triton X-100, 500 ug/ml BSA, 20 U/ml SUPERase-In, 4 C; UNK is unkempt and MSI1 is Musashi-1; names of the RNAs are library labels; protein concentration not given here; high values mean tight binding
T1 sequence: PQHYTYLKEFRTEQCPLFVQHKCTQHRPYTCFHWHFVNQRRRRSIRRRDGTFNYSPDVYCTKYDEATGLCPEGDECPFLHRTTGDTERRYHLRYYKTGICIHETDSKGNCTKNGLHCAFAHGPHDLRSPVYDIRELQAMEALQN

Binder	binding signal [enrichment R]
B1	0.662
B2	0.469
B3	2.71
B4	0.541
B5	1.36
B6	0.557
B7	1.18
B8	1.32
B9	1.76
B10	0.437
B11	1.53
B12	2.01
B13	1.02
B14	0.952
B15	1.34
B16	1.12
B17	1.36
B18	1.14
B19	1.2
B20	1.03
B21	1.16
B22	0.812
